For 106 molecules, z-score results are on record in PubChem BioAssay AID488969 (Vanderbilt High Throughput Screening Facility, 2010).

The structures appear in SMILES notation. Over roughly 110,000 compounds, “z-score” has its median near -0.1; the highest 2% begin near 2. The list shows a part of the results. Activity calls are given as the source filed them.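 The calls were made as follows: active = z-score in the third read window above 3 or below -3; inactive = the rest.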

The test concerns the target Metabotropic glutamate receptor 8 (Rattus norvegicus) (UniProt P70579). The experiment in a line: rat mGluR8 modulators via GIRK flux, primary screen, cell-based, thallium flux, HTS (AID 488969). Conditions: HEK293 rat mGluR8, GIRK (G protein-gated inwardly rectifying potassium channel) thallium flux, FluoZin2; at 10 µM; stronger effect = higher value; submaximal glutamate (EC20) added with thallium.
UniProt P70579, sequence (P70579 whole entry, looked up): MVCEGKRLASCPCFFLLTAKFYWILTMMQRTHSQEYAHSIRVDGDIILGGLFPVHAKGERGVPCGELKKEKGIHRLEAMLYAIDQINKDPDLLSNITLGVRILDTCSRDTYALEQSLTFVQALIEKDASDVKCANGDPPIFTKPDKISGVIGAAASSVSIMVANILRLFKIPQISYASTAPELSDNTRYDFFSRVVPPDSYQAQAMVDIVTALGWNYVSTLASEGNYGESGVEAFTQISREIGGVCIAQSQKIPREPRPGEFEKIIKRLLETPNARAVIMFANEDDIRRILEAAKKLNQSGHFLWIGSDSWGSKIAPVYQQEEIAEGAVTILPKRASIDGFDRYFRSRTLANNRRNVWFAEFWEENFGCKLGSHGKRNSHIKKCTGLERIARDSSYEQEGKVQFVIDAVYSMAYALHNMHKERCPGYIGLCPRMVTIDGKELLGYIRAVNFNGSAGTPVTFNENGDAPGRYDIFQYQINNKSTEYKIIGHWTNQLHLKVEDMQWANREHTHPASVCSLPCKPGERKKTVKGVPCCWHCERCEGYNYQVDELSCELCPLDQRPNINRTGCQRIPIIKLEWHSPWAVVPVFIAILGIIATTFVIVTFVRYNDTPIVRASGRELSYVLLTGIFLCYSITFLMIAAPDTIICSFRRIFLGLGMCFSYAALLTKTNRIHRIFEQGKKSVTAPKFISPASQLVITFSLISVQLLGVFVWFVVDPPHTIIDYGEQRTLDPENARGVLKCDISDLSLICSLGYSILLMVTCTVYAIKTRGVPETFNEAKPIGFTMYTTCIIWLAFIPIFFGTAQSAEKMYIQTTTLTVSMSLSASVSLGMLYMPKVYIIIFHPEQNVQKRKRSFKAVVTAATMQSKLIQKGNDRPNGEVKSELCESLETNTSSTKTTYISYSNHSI
For the molecule `CCOc1nc(C)nc(NC(=O)NS(=O)(=O)c2ccccc2Cl)n1`, the z-score is -0.786.
For `CCOc1ccc(Cl)cc1/C=N/NC(=O)CNC(=O)c1ccccc1` the value was -0.114; for `COc1ccc(C2NC(=O)N(C)C3=C2C(=O)CC(C)(C)C3)cc1OC` (stereo unspecified), 0.0627; for `O=c1c2ccccc2nc2n1C(CSCc1ccc(Cl)cc1Cl)CS2` (stereo unspecified), -0.188.
`CCOC(=O)c1cc(CC)sc1NC(=O)C(c1ccccc1)c1ccccc1` gave a z-score of 0.193.
The same measure for `CC1CCCCC12NC(=O)N(CC(=O)NC1CCCc3ccccc31)C2=O` (stereo unspecified): -0.469.
The same measure for `O=c1c2ccccc2[nH]c(=S)n1CCCN1CCN(C2CCCCC2)CC1`: active: 10.2.
The same measure for `Cc1ccc(-c2nnn(CC(=O)N(CC3CCCO3)C(C(=O)NCC3CCCO3)c3ccc(F)cc3)n2)o1` (stereo unspecified): -0.0943; for `O=C(NC(=S)Nc1cc([N+](=O)[O-])ccc1Cl)c1ccccc1`: active: 12.9; for `COc1cccc(-c2nc3cc(C)ccc3o2)c1`: -0.333.
As to `Cc1ccc(C(=S)NCS(=O)(=O)c2ccc(C)cc2)cc1`, the z-score is -0.17.
For `Cc1cc(C(F)F)n2nc(C(=O)Nc3ccc(S(=O)(=O)N4CCCCCC4)cc3)nc2n1` the value was -0.0233.
For `CCC(C)c1c(O)nc(SCC(=O)Nc2ccccc2)[nH]c1=O` (stereo unspecified), the z-score was -0.257.
Consider `Cc1cc(C)n(-c2nc(O)cc(=O)[nH]2)n1`, for which the z-score is -0.0986.
The same measure for `Cc1ccc(S(=O)(=O)N2CCCC2C(=O)n2nc(C)cc2C)cc1` (stereo unspecified): 0.0898; for `Cc1c(NC(=O)CSC2=C(C#N)C(c3ccccc3F)CC(=O)N2)c(=O)n(-c2ccccc2)n1C` (stereo unspecified): 0.0917.
The same measure for `O=C(OCC(=O)N1CCCC1)c1ccco1`: 1.38; for `COc1cc2c(cc1NC(=S)NC(=O)c1c(OC)cccc1OC)oc1ccccc12`: -0.162.
The same measure for `Cn1c(=O)[nH]c(=O)c2c1nc(Br)n2CC(O)COc1ccccc1` (stereo unspecified): -0.0582; for `COC(=O)C1=C(C(=O)OC)SC(=C2C(=S)C(C)(C)N(C(=O)CC(C)C)c3ccccc32)S1`: -0.622; for `COCCCN1C(=O)C(O)=C(C(=O)c2ccc(C)o2)C1c1cccc(Br)c1` (stereo unspecified): -1.85.
For the molecule `CN(C)S(=O)(=O)N1CCC(C(=O)O)(c2ccccc2)CC1`, the z-score is -0.117.
On to `COc1cc(/C=N/NC(=O)c2cnccn2)cc(OC)c1OC`, for which the z-score was -0.244.
The same measure for `O=C(CS(=O)(=O)c1c[nH]c2ccccc12)Nc1ccc2c(c1)OCCO2`: 0.777; for `COc1ccc(C(=O)Nc2ccc(C)cn2)c(OC)c1`: -0.429.
Regarding `CCOC(=O)c1ccc(NC2c3ccccc3C(=O)N2c2ccccn2)cc1` (stereo unspecified), the z-score was -0.0782.
For `COc1ccc(C(c2nnnn2CCc2ccccc2)N2CCN(C3CCCC3)CC2)cc1OC` (stereo unspecified) the value was -0.433; for `CCN(CC)c1ccc(/C=N/OC(C)C(=O)Nc2ccc(C)cc2)cc1` (stereo unspecified), -0.337.
The same measure for `CCCCN(C)C1=CC2=CC(=C(C#N)C#N)CCC2CC1` (stereo unspecified): active: 5.11; for `O=C1C(Cl)=C(Nc2ccccc2O)C(=O)N1c1ccccc1`: 0.0471; for `O=C(/C=C/c1ccccc1)CC(O)(c1ccccc1)C(F)(F)C(F)F` (stereo unspecified): -0.207.
With `O=C(CNC(=O)c1ccc([N+](=O)[O-])cc1)c1ccccc1`, the z-score is -0.124.
For `CCOc1ccc(Nc2nc(CC(=O)OC)cc(=O)[nH]2)cc1` the value was -0.00109.
The same measure for `COc1cccc(/C=N/NC(=O)CCn2c3ccccc3c3ccccc32)c1`: 0.0557.
The same measure for `CCOc1cc(N2CCOCC2)c(OCC)cc1NC(=O)COC(=O)[C@H](Cc1c[nH]c2ccccc12)NC(C)=O`: 0.243; for `COc1ccc(Nc2nc(Nc3ccc(OC)cc3)nc(-n3[nH]c(=O)c(C)c3C)n2)cc1`: -0.186; for `CC(=O)c1cn(CC(=O)NCc2ccco2)c2ccccc12`: -0.774.
In the case of `COCCCNC(=S)NNC(=O)c1ccc2c(c1)OCO2`, the z-score was 0.142.
For `COc1ccc(NC(=O)CSc2nnc(-c3ccccc3)n2N)cc1` the value was -0.42.
In turn, `Cc1ccccc1NC(=O)CN1C(=O)NC(C)(c2ccc3c(c2)OCO3)C1=O` (stereo unspecified) yielded a z-score of 0.0574.
For `COc1ccc(C=NCCC2(O)CC(C)N(C)CC2C)cc1` (stereo unspecified) the value was 0.0407; for `CCOC(=O)c1ccc(NC(=O)C2(c3ccccc3)CCCC2)cc1`, 0.405; for `CCCCc1nc2n[nH]c(N)c2c2c1CSC(C)(C)C2`, -0.471.
The same measure for `COc1ccc(C(C(=O)NC2CCCCC2)N(C(=O)CCl)c2ccccc2Cl)cc1` (stereo unspecified): 0.0511; for `CC(=O)Nc1sc(C)c(C)c1C(=O)Nc1ccc(C)cc1`: -0.207; for `Fc1ccc(OCc2nc(-c3ccc(Br)o3)no2)c(F)c1`: -0.191.
`COc1ccc(Cc2c(O)nc(SCC(=O)N3CCCCCC3)[nH]c2=O)cc1`: the z-score is -0.345.
The same measure for `O=C(c1cnc2n(c1=O)CCS2)N1CCN(c2ccc(Cl)c(Cl)c2)CC1`: -0.83; for `COc1ccc(N(CC(=O)O)S(=O)(=O)c2c(C)n[nH]c2C)cc1`: -0.105; for `CN(C)/C=N/c1nc2ccc3c(c2s1)CCCC3`: -0.171.
The same measure for `NC(=O)c1ccccc1NC(=O)CCN1C(=O)c2ccccc2C1=O`: 0.146; for `Cc1csc(Sc2nc3c(c(=O)[nH]c(=O)n3C)n2Cc2ccccc2Cl)n1`: 0.426; for `CCOC(=O)C(NC(=O)CC)(Nc1nc2c(s1)CCCC2)C(F)(F)F` (stereo unspecified): -0.0129.
For `O=C(COC(=O)[C@H](Cc1ccccc1)NC(=O)c1cccs1)Nc1ccccc1C(F)(F)F` the value was -0.389.
`C/C(Cc1ccccc1)=N\NC(=O)CNC(=O)c1ccc(C(C)(C)C)cc1`: the z-score was -0.163.
For `Cc1cccc2cc(C(c3nnnn3C(C)(C)C)N3CCN(C(=O)c4ccco4)CC3)c(=O)[nH]c12` (stereo unspecified) the value was 0.516.
For `Cc1cc(C(=O)NC(=S)Nc2ccccc2N2CCOCC2)ccc1[N+](=O)[O-]` the value was 0.86.
For `Cc1ccc(/C=N\NC(=O)Cn2nnc3ccccc32)o1` the value was -0.116.
Regarding `Cc1nc(NC2=NCN(C3CCCCC3C)CN2)nc2ccccc12` (stereo unspecified), the z-score is -0.214.
For `COc1cccc(NC(=O)CCSc2ccc3ccccc3n2)c1` the value was -0.0656; for `Cc1cc(C)cc(OCC(=O)Nc2ccc3c(c2)C(=O)c2ccccc2C3=O)c1`, -0.124; for `COc1ccc(NC(=O)C2CCC(C(C)(C)C)CC2)cc1S(=O)(=O)N1CCCCC1` (stereo unspecified), 0.369.
For `CCc1nc2n[nH]c(N)c2c2c1CCCC2` the value was 0.621.
For `CC(C)(Oc1ccc(Cl)cc1)C(=O)Nc1ccc2oc(-c3ccncc3)nc2c1` the value was 0.196; for `O=C(O)C(Cc1c[nH]c2ccccc12)NS(=O)(=O)c1cccc2nsnc12` (stereo unspecified), 0.00264; for `CCOC(=O)c1c(NC2=NS(=O)(=O)c3ccccc32)sc2c1CCCCC2`, -0.637.
For the molecule `CC(C)(C)N1C(=O)c2ccccc2NC(=O)N1Cc1ccc(Br)cc1`, the z-score is -0.274.
For `CCC(=O)Nc1ccc2c(c1)C(=O)N(C)C2=O` the value was -0.189; for `C=CCn1c2ccccc2c2nnc(SCC(=O)Nc3c(C)n(C)n(-c4ccccc4)c3=O)nc21`, -0.52; for `O=C(CSc1nnc(-c2ccco2)o1)NC(=O)Cc1ccccc1`, -0.213.
Take `COc1ccc(-c2nnc(SCC(=O)c3ccc(C)o3)o2)cc1`: the z-score is -0.153.
The same measure for `Cc1ccc(-n2nnnc2SCC(=O)c2cc(C)n(-c3cc(C)on3)c2C)c(C)c1`: -1.43; for `COC(=O)c1ccc(N/C=C/C(=O)c2ccc(OC)c(OC)c2)cc1`: 0.868; for `O=C(COC(=O)C12CC3CC(CC(O)(C3)C1)C2)NC(=O)NCc1ccco1`: -0.0573.
For `O=C(CSc1nnc2n(C3CCCCC3)c(=O)c3ccccc3n12)OC1CCCCC1` the value was -0.124; for `CCc1ccc(-c2cc(C(=O)Nc3ccc(S(=O)(=O)NC(C)=O)cc3)c3ccccc3n2)cc1`, -0.146.
In the case of `O=C(NCc1ccc(C(F)(F)F)cc1)C1CC(c2ccccc2[N+](=O)[O-])=NO1` (stereo unspecified), the z-score is -0.239.
The same measure for `Cn1c(CCNC(=O)c2ccc(F)cc2)nc2ccccc21`: -0.117; for `Cc1cccc(N2CC(C(=O)Nc3nnc(SCC(=O)Nc4nccs4)s3)CC2=O)c1` (stereo unspecified): -0.265; for `O=C(NCCCN1CCCCC1)c1ccc2c(=O)n(CCc3ccccc3)c(=O)[nH]c2c1`: 1.16.
With `CCc1sc(C(=O)Nc2cccc(C(C)=O)c2)cc1C`, the z-score amounted to 0.0168.
Consider `CC(O)CN(Cc1cccc(Cl)c1)CC(C)O` (stereo unspecified), for which the z-score was found to be 0.0395.
For `COc1ccc(NC(=O)c2cc(-c3ccccc3)oc2C)cc1` the value was -0.319; for `CC(C)COc1ccc(C(=O)Nc2ccccc2[N+](=O)[O-])cc1`, 1.01; for `COC(=O)[C@H](CC(C)C)NC(=O)Nc1cccc(Br)c1`, -0.0767.
For `CCOC(=O)CSc1nc2ccc(S(=O)(=O)N3CCOCC3)cc2[nH]1` the value was 0.137; for `CCOc1ccc(C(=O)Cc2ccc3oc(C(=O)O)cc3c2)c(O)c1`, -0.52.
The same measure for `c1ccc(CN2c3ccccc3-c3nc4ccccc4n3C2c2ccccn2)cc1` (stereo unspecified): -0.213.
`O=c1cc(CSc2nnc(Nc3ccccc3)s2)nc2sccn12`: the z-score was -0.432.
The same measure for `COc1ccc(C(=O)N2CCc3ccccc32)cc1`: -0.92.
The same measure for `CCOC(=O)Cc1nnn(CC(=O)OCC)n1`: -0.295; for `Cc1nn(-c2ccccc2)c2c1C(c1ccc(Cl)cc1)N(c1ccccc1)C(=O)N2` (stereo unspecified): -0.561; for `O=C(O)c1ccc(Cl)c(NC(=O)C2CCCN2S(=O)(=O)c2cccc3nsnc23)c1` (stereo unspecified): -0.592.
The same measure for `NC(=O)c1oc2ccccc2c1NC(=O)c1ccccc1`: -0.575.
On to `CCN(CC)S(=O)(=O)c1cccc(NC(=S)NC(=O)/C=C/c2ccc(S(=O)(=O)N3CCOCC3)cc2)c1`, for which the z-score was -0.127.
For `COc1ccc(C(=O)NCCNC(=O)c2cc(OCC(F)(F)F)ccc2OCC(F)(F)F)cc1` the value was -0.0999; for `CCOc1ccc(/C=N/NC(=O)C(=O)NCc2ccco2)cc1`, -0.0955; for `Cc1ccccc1NC(=O)Cn1nc(-c2ccccc2)nc1-c1ccccc1`, -0.268.
For `CC(=O)c1coc2c1cc(O)c1ccccc12` the value was -0.786.
The same measure for `CCOC(=O)/C(C#N)=C1/SC(C)C(=O)N1c1ccc(Br)cc1` (stereo unspecified): 0.227.
As for `O=C1CCCC/C1=C/Nc1ccc2c(c1)OCO2`, the z-score is -0.127.
`CCOc1ccccc1C(=O)NC(C(=O)OCC(=O)Nc1nnc(-c2ccccc2)o1)C(C)C` (stereo unspecified): the z-score was -1.8.
For `COc1ccc(-c2ccc(-c3noc(-c4cccc(OC)c4)n3)c(OC)n2)cc1` the value was 0.15; for `O=C(CC1Sc2ccccc2NC1=O)OCc1cc(=O)oc2cc(O)ccc12` (stereo unspecified), -0.575; for `Cc1ccc(Cn2ccc(NC(=O)c3cc(-c4ccc(Br)cc4)on3)n2)cc1`, -0.182.
For `O=C(Nc1ccc2ccccc2c1)C(c1ccccc1)C1CCCC1` (stereo unspecified) the value was 0.0599.
